Measured values: PMC9911399, “Two distinct binding modes provide the RNA-binding protein RbFox with extraordinary sequence specificity”
Numbering of substitutions follows the chain as printed; changes in the protein carry UniProt numbers. The list shows a part of the results.

B1: AUCGGGA (DNA:RNA)
RNA: GGGAGACCGGAAUUCAGAUUGUCCAUCGGGAUUAAAUCCCGUCGUAGCCACCA
DNA 1: CAATCTGAATTCCGGTCTCCC
DNA 2: TGGTGGCTACGACGGGATT
B2: CUCUCGU (DNA:RNA)
RNA: B1 RNA with A25C, G28U, G29C, A31U
DNA 1: CAATCTGAATTCCGGTCTCCC
DNA 2: TGGTGGCTACGACGGGATT
B3: UCUCUUA (DNA:RNA)
RNA: B1 RNA with A25U, U26C, C27U, G28C, G29U, G30U
DNA 1: CAATCTGAATTCCGGTCTCCC
DNA 2: TGGTGGCTACGACGGGATT
B4: CGAAUGG (DNA:RNA)
RNA: B1 RNA with A25C, U26G, C27A, G28A, G29U, A31G
DNA 1: CAATCTGAATTCCGGTCTCCC
DNA 2: TGGTGGCTACGACGGGATT
B5: UGUGAGA (DNA:RNA)
RNA: B1 RNA with A25U, U26G, C27U, G29A
DNA 1: CAATCTGAATTCCGGTCTCCC
DNA 2: TGGTGGCTACGACGGGATT
B6: CGAAUCG (DNA:RNA)
RNA: GGGAGACCGGAAUUCAGAUUGUCCCGAAUCGUUAAAUCCCGUCGUAGCCACCA
DNA 1: CAATCTGAATTCCGGTCTCCC
DNA 2: TGGTGGCTACGACGGGATT
B7: UUAUAUC (DNA:RNA)
RNA: B1 RNA with A25U, C27A, G28U, G29A, G30U, A31C
DNA 1: CAATCTGAATTCCGGTCTCCC
DNA 2: TGGTGGCTACGACGGGATT
B8: UAAUGAG (DNA:RNA)
RNA: B6 RNA with C25U, G26A, A28U, U29G, C30A
DNA 1: CAATCTGAATTCCGGTCTCCC
DNA 2: TGGTGGCTACGACGGGATT
B9: ACCCCUC (DNA:RNA)
RNA: B1 RNA with U26C, G28C, G29C, G30U, A31C
DNA 1: CAATCTGAATTCCGGTCTCCC
DNA 2: TGGTGGCTACGACGGGATT
B10: UGCCAUA (DNA:RNA)
RNA: B1 RNA with A25U, U26G, G28C, G29A, G30U
DNA 1: CAATCTGAATTCCGGTCTCCC
DNA 2: TGGTGGCTACGACGGGATT
B11: GUACGAU (DNA:RNA)
RNA: B1 RNA with A25G, C27A, G28C, G30A, A31U
DNA 1: CAATCTGAATTCCGGTCTCCC
DNA 2: TGGTGGCTACGACGGGATT
B12: UGCGUUG (DNA:RNA)
RNA: B6 RNA with C25U, A27C, A28G, C30U
DNA 1: CAATCTGAATTCCGGTCTCCC
DNA 2: TGGTGGCTACGACGGGATT
B13: GUGCGGG (DNA:RNA)
RNA: B1 RNA with A25G, C27G, G28C, A31G
DNA 1: CAATCTGAATTCCGGTCTCCC
DNA 2: TGGTGGCTACGACGGGATT
B14: CCAAUCU (DNA:RNA)
RNA: B6 RNA with G26C, G31U
DNA 1: CAATCTGAATTCCGGTCTCCC
DNA 2: TGGTGGCTACGACGGGATT
B15: CAUAUUC (DNA:RNA)
RNA: B6 RNA with G26A, A27U, C30U, G31C
DNA 1: CAATCTGAATTCCGGTCTCCC
DNA 2: TGGTGGCTACGACGGGATT
B16: CGCGGUG (DNA:RNA)
RNA: B1 RNA with A25C, U26G, G30U, A31G
DNA 1: CAATCTGAATTCCGGTCTCCC
DNA 2: TGGTGGCTACGACGGGATT
B17: GGCAUCG (DNA:RNA)
RNA: B6 RNA with C25G, A27C
DNA 1: CAATCTGAATTCCGGTCTCCC
DNA 2: TGGTGGCTACGACGGGATT
B18: UCGUCUA (DNA:RNA)
RNA: B1 RNA with A25U, U26C, C27G, G28U, G29C, G30U
DNA 1: CAATCTGAATTCCGGTCTCCC
DNA 2: TGGTGGCTACGACGGGATT
B19: AACGAGC (DNA:RNA)
RNA: B1 RNA with U26A, G29A, A31C
DNA 1: CAATCTGAATTCCGGTCTCCC
DNA 2: TGGTGGCTACGACGGGATT
B20: AUGAGAU (DNA:RNA)
RNA: B1 RNA with C27G, G28A, G30A, A31U
DNA 1: CAATCTGAATTCCGGTCTCCC
DNA 2: TGGTGGCTACGACGGGATT

target: T1, RBFOX1 RRM (Homo sapiens, UniProt Q9NWB1 109-208); experiment: EMSA; HiTS-Eq, 1 nM pool, 10 min; buffer printed only for the single-RNA assays: 10 mM Tris pH 7.5, 150 mM NaCl, 3.4 mM EDTA, 0.001% NP-40, 30 C; details: tags: His6 N-terminal (pET28a); label: 5' 32P
T1 sequence: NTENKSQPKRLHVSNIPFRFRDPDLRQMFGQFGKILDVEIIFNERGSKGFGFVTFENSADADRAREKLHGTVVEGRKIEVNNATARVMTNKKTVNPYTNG
Procedure, shortened: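 Purified RbFox RRM, wild type or mutant, was incubated for 10 min in 50 µL with 1 nM of a 5′-radiolabelled RNA pool carrying 7 randomized nucleotides, whose flanks were annealed to DNA oligonucleotides, over a series of increasing protein concentrations. Unbound RNA was resolved on 8% native PAGE, cut out, reverse-transcribed, barcoded by PCR and sequenced on an Illumina HiSeq 2500. Relative association constants were derived from changes in read counts for each RNA species versus the control reaction and normalised to the cognate motif.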

Binder | binding signal
B1 | 0.00823 KA relative to UGCAUGU
B2 | 0.00829 KA relative to UGCAUGU
B3 | 0.00398 KA relative to UGCAUGU
B4 | 0.0141 KA relative to UGCAUGU
B5 | 0.0236 KA relative to UGCAUGU
B6 | 0.00827 KA relative to UGCAUGU
B7 | 0.00257 KA relative to UGCAUGU
B8 | 0.0138 KA relative to UGCAUGU
B9 | 0.00175 KA relative to UGCAUGU
B10 | 0.0099 KA relative to UGCAUGU
B11 | 0.0134 KA relative to UGCAUGU
B12 | 0.0296 KA relative to UGCAUGU
B13 | 0.0167 KA relative to UGCAUGU
B14 | 0.000199 KA relative to UGCAUGU
B15 | 0.00242 KA relative to UGCAUGU
B16 | 0.0197 KA relative to UGCAUGU
B17 | 0.0154 KA relative to UGCAUGU
B18 | 0.00633 KA relative to UGCAUGU
B19 | 0.00705 KA relative to UGCAUGU
B20 | 0.00905 KA relative to UGCAUGU
